Reference: the supplement of paper PMC4604168 (melanoma cell lines)
Some of the results follow. Most values come without repeats; read them as rough.

Key:
Experiment in all cases: cell count relative to DMSO control; melanoma cells; higher = more viable cells
Conditions in all cases: library dose: low library concentration; 72 h
MZ2-MEL = tested on: MZ2-MEL
MeWo = tested on: MeWo
RPMI7951 = tested on: RPMI7951
RVH-421 = tested on: RVH-421
SkMel2 = tested on: SkMel2
UACC62 = tested on: UACC62
SkMel28 = tested on: SkMel28
SkMel30 = tested on: SkMel30
SkMel5 = tested on: SkMel5
UACC257 = tested on: UACC257
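Note: cell number obtained by counting DAPI-stained nuclei in high-throughput microscope images with image analysis software, screen run in 1,536-well plates.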

| Compound | cell count (MZ2-MEL) [%] | cell count (MeWo) [%] | cell count (RPMI7951) [%] | cell count (RVH-421) [%] | cell count (SkMel2) [%] | cell count (UACC62) [%] | cell count (SkMel28) [%] | cell count (SkMel30) [%] | cell count (SkMel5) [%] | cell count (UACC257) [%] |
| --- | --- | --- | --- | --- | --- | --- | --- | --- | --- | --- |
| N#CC[C@H](C1CCCC1)n1cc(-c2ncnc3[nH]ccc23)cn1 [ruxolitinib] + COc1ccc(C2=N[C@@H](c3ccc(Cl)cc3)[C@@H](c3ccc(Cl)cc3)N2C(=O)N2CCNC(=O)C2)c(OC(C)C)c1 [Nutlin-3] (first compound 1 µM, partner dose 0.1 µM) | 112 | 113 | 124 | 94.2 | 106 | 121 | – | – | – | – |
| N#CC[C@H](C1CCCC1)n1cc(-c2ncnc3[nH]ccc23)cn1 [ruxolitinib] + O=S(=O)(c1ccccc1)N(CC(F)(F)F)c1ccc(C(O)(C(F)(F)F)C(F)(F)F)cc1 [T0901317] (first compound 1 µM, partner dose 1.4 µM) | – | 112 | 103 | 92.4 | 103 | 106 | 101 | 90.9 | 93.1 | 115 |
| CC[C@]1(O)C[C@H]2CN(CCc3c([nH]c4ccccc34)[C@@](C(=O)OC)(c3cc4c(cc3OC)N(C=O)[C@H]3[C@@](O)(C(=O)OC)[C@H](OC(C)=O)[C@]5(CC)C=CCN6CC[C@]43[C@@H]65)C2)C1 [vincristine] + Cn1c(Nc2ccc(C(F)(F)F)cc2)nc2cc(Oc3ccnc(-c4ncc(C(F)(F)F)[nH]4)c3)ccc21 [CHIR265] (first compound 0.0001 µM, partner dose 0.08 µM) | 70.2 | 49.4 | 44.7 | 61.2 | – | 31 | 45.8 | 40.7 | – | – |
| Cc1cc(Nc2cc(N3CCN(C)CC3)nc(Sc3ccc(NC(=O)C4CC4)cc3)n2)n[nH]1 [Tozasertib] + Cc1cc(N2CCOCC2)cc2[nH]c(-c3c(NC[C@@H](O)c4cccc(Cl)c4)cc[nH]c3=O)nc12 [BMS536924] (first compound 0.006 µM, partner dose 0.2 µM) | – | 91.9 | 86.4 | 107 | – | 96.5 | 84.8 | 103 | 92.4 | 82.1 |
| N#CC[C@H](C1CCCC1)n1cc(-c2ncnc3[nH]ccc23)cn1 [ruxolitinib] + Cn1c(=O)n(-c2ccc(C(C)(C)C#N)cc2)c2c3cc(-c4cnc5ccccc5c4)ccc3ncc21 [NVP-BEZ235] (first compound 1 µM, partner dose 0.004 µM) | 98.7 | 86.5 | 95.9 | 81.5 | 102 | – | – | 99.1 | – | – |
| N#CC[C@H](C1CCCC1)n1cc(-c2ncnc3[nH]ccc23)cn1 [ruxolitinib] + C=CCn1c(=O)c2cnc(Nc3ccc(N4CCN(C)CC4)cc3)nc2n1-c1cccc(C(C)(C)O)n1 [MK1775] (first compound 1 µM, partner dose 0.02 µM) | – | 88.3 | 95.3 | 127 | – | 91.5 | 95.2 | 80.6 | 83.3 | 84.3 |
| Cc1cc(Nc2cc(N3CCN(C)CC3)nc(Sc3ccc(NC(=O)C4CC4)cc3)n2)n[nH]1 [Tozasertib] + CC(C)CCN1c2nc(Nc3cc(F)c(O)c(F)c3)ncc2N(C)C(=O)C1C [BID1870] (first compound 0.006 µM, partner dose 0.2 µM) | – | 85.2 | 106 | 112 | – | 81.7 | 77.3 | 86.9 | 88.5 | 95.4 |
| N#CC[C@H](C1CCCC1)n1cc(-c2ncnc3[nH]ccc23)cn1 [ruxolitinib] + c1cc(-c2cnn3cc(-c4ccc(OCCN5CCCCC5)cc4)cnc23)ccn1 [Dorsomorphin] (first compound 1 µM, partner dose 0.4 µM) | – | 90.9 | 109 | 112 | – | 87.3 | 106 | 95.1 | 87.3 | 99.7 |
| N#CC[C@H](C1CCCC1)n1cc(-c2ncnc3[nH]ccc23)cn1 [ruxolitinib] + OCCn1cc(-c2cnc3nnn(Cc4ccc5ncccc5c4)c3n2)cn1 [PF04217903] (first compound 1 µM, partner dose 1 µM) | – | 87.1 | 118 | 109 | 109 | – | 103 | 96.4 | 104 | 103 |
| N#CC[C@H](C1CCCC1)n1cc(-c2ncnc3[nH]ccc23)cn1 [ruxolitinib] + Cn1sc(=O)n(Cc2ccccc2)c1=O [TDZD-8] (first compound 1 µM, partner dose 0.4 µM) | – | 93.1 | 90.5 | 84 | – | 106 | 118 | 101 | – | – |
| Cc1cc(Nc2cc(N3CCN(C)CC3)nc(Sc3ccc(NC(=O)C4CC4)cc3)n2)n[nH]1 [Tozasertib] + O=C(O)c1ccc2c(c1)nc(Nc1cccc(Cl)c1)c1ccncc12 [CX4945] (first compound 0.006 µM, partner dose 0.4 µM) | 87.3 | 87.8 | 95.5 | 83 | – | 88.9 | 86.9 | 85.7 | – | – |
| N#CC[C@H](C1CCCC1)n1cc(-c2ncnc3[nH]ccc23)cn1 [ruxolitinib] + CCN(CC)CCCCNc1ncc2cc(-c3cc(OC)cc(OC)c3)c(NC(=O)NC(C)(C)C)nc2n1 [PD173074] (first compound 1 µM, partner dose 0.1 µM) | – | 108 | 118 | 106 | 100 | 114 | 121 | 96.7 | 116 | 142 |
| CC[C@]1(O)C[C@H]2CN(CCc3c([nH]c4ccccc34)[C@@](C(=O)OC)(c3cc4c(cc3OC)N(C=O)[C@H]3[C@@](O)(C(=O)OC)[C@H](OC(C)=O)[C@]5(CC)C=CCN6CC[C@]43[C@@H]65)C2)C1 [vincristine] + C[C@@H](Oc1cc(-c2cnn(C3CCNCC3)c2)cnc1N)c1c(Cl)ccc(F)c1Cl [Crizotinib] (first compound 0.0001 µM, partner dose 0.2 µM) | – | 87.7 | 87.2 | 74.5 | 99.2 | 58.7 | 70.3 | 64.8 | – | – |
| N#CC[C@H](C1CCCC1)n1cc(-c2ncnc3[nH]ccc23)cn1 [ruxolitinib] + CO[C@H]1C[C@@H]2CC[C@@H](C)[C@@](O)(O2)C(=O)C(=O)N2CCCC[C@H]2C(=O)O[C@H]([C@H](C)C[C@@H]2CC[C@@H](OCCO)[C@H](OC)C2)CC(=O)[C@H](C)/C=C(\C)[C@@H](O)[C@@H](OC)C(=O)[C@H](C)C[C@H](C)/C=C/C=C/C=C/1C [everolimus] (first compound 1 µM, partner dose 0.02 µM) | 78.3 | 74.5 | 76.5 | 82.9 | – | 89 | 69.6 | 76.5 | – | – |
| N#CC[C@H](C1CCCC1)n1cc(-c2ncnc3[nH]ccc23)cn1 [ruxolitinib] + CN1CCN(c2ccc3nc(-c4c(N)c5c(F)cccc5[nH]c4=O)[nH]c3c2)CC1 [Dovitinib] (first compound 1 µM, partner dose 0.1 µM) | 96.2 | 96.1 | – | 128 | 106 | 119 | 140 | 93 | – | – |
| CC[C@]1(O)C[C@H]2CN(CCc3c([nH]c4ccccc34)[C@@](C(=O)OC)(c3cc4c(cc3OC)N(C=O)[C@H]3[C@@](O)(C(=O)OC)[C@H](OC(C)=O)[C@]5(CC)C=CCN6CC[C@]43[C@@H]65)C2)C1 [vincristine] + CC(=O)O[C@@]12CO[C@@H]1C[C@H](O)[C@@]1(C)C(=O)[C@H](O)C3=C(C)[C@@H](OC(=O)[C@H](O)[C@@H](NC(=O)OC(C)(C)C)c4ccccc4)C[C@@](O)([C@@H](OC(=O)c4ccccc4)[C@H]21)C3(C)C [Docetaxel] (first compound 0.0001 µM, partner dose 0.0001 µM) | – | 42.3 | 42.2 | 74.6 | 45.4 | 38 | 45.8 | 39.6 | – | – |
| Cc1cc(Nc2cc(N3CCN(C)CC3)nc(Sc3ccc(NC(=O)C4CC4)cc3)n2)n[nH]1 [Tozasertib] + N#CC[C@H](C1CCCC1)n1cc(-c2ncnc3[nH]ccc23)cn1 [ruxolitinib] (first compound 0.006 µM, partner dose 1 µM) | – | 102 | 137 | 99.8 | 96.8 | 113 | 128 | 120 | – | – |
| N#CC[C@H](C1CCCC1)n1cc(-c2ncnc3[nH]ccc23)cn1 [ruxolitinib] + NC(=O)c1ccc(N(C(N)=O)c2c(F)cccc2F)nc1-c1ccc(F)cc1F [VX702] (first compound 1 µM, partner dose 0.4 µM) | – | 99.1 | 96.4 | 87.1 | – | 111 | 95 | 108 | – | – |
| CC[C@]1(O)C[C@H]2CN(CCc3c([nH]c4ccccc34)[C@@](C(=O)OC)(c3cc4c(cc3OC)N(C=O)[C@H]3[C@@](O)(C(=O)OC)[C@H](OC(C)=O)[C@]5(CC)C=CCN6CC[C@]43[C@@H]65)C2)C1 [vincristine] + O=C1NC(=O)/C(=C/c2ccc(-c3ccc(F)cc3O)o2)S1 [AS252424] (first compound 0.0001 µM, partner dose 1 µM) | – | 83.7 | 67.5 | 62 | 100 | 67 | 83.8 | 55.9 | 95.2 | 80.4 |
| N#CC[C@H](C1CCCC1)n1cc(-c2ncnc3[nH]ccc23)cn1 [ruxolitinib] + Cn1cc(/C=C2\C(=O)Nc3cccnc32)c2ccccc21 [GW441756] (first compound 1 µM, partner dose 0.4 µM) | 105 | – | 82.1 | 107 | – | 106 | 138 | 112 | 91.6 | 83 |
| Cc1cc(Nc2cc(N3CCN(C)CC3)nc(Sc3ccc(NC(=O)C4CC4)cc3)n2)n[nH]1 [Tozasertib] + CO[C@H]1C[C@@H]2CC[C@@H](C)[C@@](O)(O2)C(=O)C(=O)N2CCCC[C@H]2C(=O)O[C@H]([C@H](C)C[C@@H]2CC[C@@H](OCCO)[C@H](OC)C2)CC(=O)[C@H](C)/C=C(\C)[C@@H](O)[C@@H](OC)C(=O)[C@H](C)C[C@H](C)/C=C/C=C/C=C/1C [everolimus] (first compound 0.006 µM, partner dose 0.02 µM) | 76.3 | 65.2 | 79.1 | 80.6 | – | 65.7 | 51.4 | 75.4 | – | – |
